Reference: PubChem BioAssay (NCI)
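In this assay, cells in 96-well plates receive the compound at five concentrations for 48 hours. Endpoints are linearly interpolated between the surrounding concentrations. At the GI50, growth is halved. TGI denotes the concentration required for complete inhibition of growth.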

tested on: NCI-H322M lung; test: DTP human tumour cell line panel, 48 h

`CC1(C)N=C(/C(C#N)=[N+](/[O-])C(=O)c2ccccc2)C(C)(C)N1O` and `CC1(C)C(C(=O)OC(C#N)c2cccc(OCC(=O)OCc3ccccc3)c2)C1(C)C` (stereo not given) cannot be ordered by TGI: greater than 100 µM for the first, greater than 100 µM for the second.

`CCC(C)c1cnc(CC(C)C)c(=O)[nH]1` (stereo not given) and `Cn1c(=O)c2[nH]cnc2n(CC(=O)O)c1=O` cannot be ordered by TGI: greater than 100 µM for the first, greater than 100 µM for the second.

Going from `CN(C)Cc1cc(C(=O)/C=C/c2c(F)cccc2Cl)cc(CN(C)C)c1O` to `N/C(=N\N=C/c1cc(Cl)cc(Cl)c1O)NO`, the TGI rises from 28.2 µM to 60.3 µM (2.1-fold).

`O=C(O)C1=C(Cl)c2ccccc2S1(=O)=O` and `O=C(O)C1C2CCC(C2)C1c1ccccc1` (stereo not given) cannot be ordered by TGI: greater than 100 µM for the first, greater than 100 µM for the second.

Compared with `Cc1cc(O)c(/C=N/C(=O)NN)c(=O)o1`, `CCCCCCCCCCCCCCCCCCNC(=S)/N=C/c1c(O)cc(C)oc1=O` is lower in TGI: greater than 100 µM for the first, 64.9 µM for the second.

`O=C(O)C1(CC(CCCN2CCCCC2)c2ccccc2)CCCC1` (stereo not given) and `CCC(c1nc2ccccc2c(=O)n1NC(=O)C(C)(C)C)C1(O)CCCCC1` (stereo not given) cannot be ordered by TGI: greater than 100 µM for the first, greater than 100 µM for the second.

`COC(=O)Nc1nc2ccc(NS(=O)(=O)c3ccc(F)cc3)cc2[nH]1` and `CCN(CC)CCNC(=O)c1cc2cc(NC(=O)c3cc4cc(NC(=O)c5cc6cc([N+](=O)[O-])ccc6[nH]5)ccc4[nH]3)ccc2[nH]1` cannot be ordered by TGI: greater than 100 µM for the first, greater than 100 µM for the second.

Going from `O=C(/C=C\c1ccc(OCCCCCC[P+](c2ccccc2)(c2ccccc2)c2ccccc2)cc1)c1ccc2c(c1)OCCO2` to `CCC[CH2][Sn]1([CH2]CCC)[O]CC([CH2][Sn]([c]2ccccc2)([c]2ccccc2)[c]2ccccc2)[O]1` (stereo not given), the TGI rises from 3.95 µM to 27.3 µM (6.9-fold).

Compared with `Cc1[nH]ccc2cc3nc4ccccc4c3cc12`, `CN(/C(=N\O)c1ccccc1)c1ccccc1` is higher in TGI: 12.1 µM for the first, greater than 100 µM for the second.

Compared with `COc1cc(C(=O)OC2CC(C)=CC[C@@]3(C)CC[C@](O)(C(C)C)C23)ccc1O` (stereo not given in full), `COC(=O)C1=C2CO[C@@H]3C[C@H]4C(C)(C)CCC[C@]4(C)C(=CC1)[C@]23C` is higher in TGI: 29.1 µM for the first, greater than 100 µM for the second.

`CCOc1ccc(-n2c(=O)n3c(Nc4ccc(Cl)cc4)nc4c(c(=O)n(C)c(=O)n4C)n3c2=O)cc1` and `Cc1ccc(C(=O)Nc2ccccc2C(=O)N/N=C(\c2ccccc2)c2ccccn2)cc1` cannot be ordered by TGI: greater than 100 µM for the first, greater than 100 µM for the second.

Going from `C=C(CN(CCN1CCOCC1)CC(=C)c1ccc(C(=O)Nc2ccccc2N)cc1)c1ccc(C(=O)Nc2ccccc2N)cc1` to `CC(=O)[CH-]C(=O)c1ccccc1.CC(=O)[CH-]C(=O)c1ccccc1.CC12CC3(C)CC(C)(C1)CC([O-])(C2)C3.CC[O-].[Ti+4]`, the TGI rises from 31.8 µM to greater than 100 µM.

`CC(=O)O[C@@H]1CC2[C@@H](CCC3Cc4nc5c(nc4C[C@@]32C)CC2CC[C@@H]3C(CC[C@@]4(C)C3CC[C@@H]4C(C)CCCC(C)C)[C@@]2(C)C5)C2C[C@@H]3OC4(CCC(C)CO4)C(C)[C@@H]3[C@]21C` (stereo not given in full) and `CNC(=O)C(NC(=O)[C@H](CC(C)C)NC(=O)[C@@H](S)CCN1C(=O)N(C)C(C)(C)C1=O)C(C)(C)C` (stereo not given in full) cannot be ordered by TGI: greater than 100 µM for the first, greater than 100 µM for the second.

Work on `CCCCCCCCCCC(CN(CC)CC)C(O)c1ccccc1` (stereo not given) yielded a TGI of 16.4 µM.

Compared with `O=C(/C=C\c1ccc(OCCCCCC[P+](c2ccccc2)(c2ccccc2)c2ccccc2)cc1)c1ccc2c(c1)OCCO2`, `CCC[CH2][Sn]1([CH2]CCC)[O]CC([CH2][Sn]([c]2ccccc2)([c]2ccccc2)[c]2ccccc2)[O]1` (stereo not given) is 8-fold higher in GI50: 1.79 µM for the first, 14.3 µM for the second.

Compared with `Cc1[nH]ccc2cc3nc4ccccc4c3cc12`, `Cc1ccc(C(=O)Nc2ccccc2C(=O)N/N=C(\c2ccccc2)c2ccccn2)cc1` is 12-fold lower in GI50: 2.56 µM for the first, 0.21 µM for the second.

Going from `C=C(CN(CCN1CCOCC1)CC(=C)c1ccc(C(=O)Nc2ccccc2N)cc1)c1ccc(C(=O)Nc2ccccc2N)cc1` to `CC(=O)[CH-]C(=O)c1ccccc1.CC(=O)[CH-]C(=O)c1ccccc1.CC12CC3(C)CC(C)(C1)CC([O-])(C2)C3.CC[O-].[Ti+4]`, the GI50 rises from 7.37 µM to 30.5 µM (4.1-fold).

Going from `COC(=O)C1=C2CO[C@@H]3C[C@H]4C(C)(C)CCC[C@]4(C)C(=CC1)[C@]23C` to `CCCCCCCCCCC(CN(CC)CC)C(O)c1ccccc1` (stereo not given), the GI50 falls from 31.9 µM to 4.47 µM (7.1-fold).
